Experimental data published in PubChem BioAssay AID485294 (National Center for Advancing Translational Sciences (NCATS), 2010).
About 150 (0.041%) of roughly 370,000 compounds were called active. This list was built around the results that the source calls inconclusive (neither active nor inactive); the mix of calls is not that of the screen. Calls follow the shape of the dose curve; as a rule, active = well fitted inhibition curve with a large enough effect; inconclusive = small, poorly fitted or top-dose-only effect; inactive = flat fitted curve, though single readings scatter. Potencies of inconclusive entries are left out as doubtful fits.

Target: Beta-lactamase (Escherichia coli (strain K12)) (UniProt P00811)
Sequence of UniProt P00811 (P00811 whole entry, looked up): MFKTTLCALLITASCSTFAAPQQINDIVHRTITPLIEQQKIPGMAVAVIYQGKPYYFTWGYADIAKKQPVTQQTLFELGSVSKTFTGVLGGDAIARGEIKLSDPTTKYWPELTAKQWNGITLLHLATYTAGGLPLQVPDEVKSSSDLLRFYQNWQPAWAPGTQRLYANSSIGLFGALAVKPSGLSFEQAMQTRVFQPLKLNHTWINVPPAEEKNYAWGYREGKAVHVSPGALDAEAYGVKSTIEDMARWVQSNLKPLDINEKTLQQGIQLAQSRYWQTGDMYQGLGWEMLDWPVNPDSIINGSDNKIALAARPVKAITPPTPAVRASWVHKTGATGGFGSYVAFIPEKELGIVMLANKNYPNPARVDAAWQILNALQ
Assay: qHTS Inhibitors of AmpC Beta-Lactamase (assay with detergent); also: nearly all actives have a fitted effect of over 25% in size;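 as to activity change, negative = inhibition: 0% = no-compound wells and -100% = no-enzyme wells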
Conditions: AmpC hydrolysis of nitrocefin, absorbance 480 nm, 0.01% Triton; activity change, negative = inhibition: at 114 µM (top of the series)
Procedure, shortened: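 20 mM phosphate pH 7.0 + 0.01% (detergent screen) or 0.0001% Triton X-100; 5.3 nM AmpC reagent; cpd preinc 15 min RT; nitrocefin (800 uM stock) to start; A480 q20 s × 4 min; Activity was normalised to no-enzyme and no-compound control wells.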
Potency is read from the fitted curve at half-maximal effect; tags tell the direction and shape of the fitted curve.

SMILES | Potency | activity change, negative = inhibition
Cn1c(NC(=O)c2ccc(F)cc2)nc2ccccc21 | inconclusive [inhibitor, full curve, poor fit] | –
O=C(CSc1nc2cc(Cl)ccc2s1)c1ccco1 | inconclusive [inhibitor, full curve, poor fit] | –
COc1cccc(NC(=O)CC2S/C(=N\S(=O)(=O)c3ccccc3)N(c3ccccc3)C2=O)c1 (stereo not drawn) | inconclusive [inhibitor, full curve, poor fit] | –
CCOc1ccc(OCC)c(NC(=O)CCc2nc3cccnc3n2Cc2cccs2)c1 | inconclusive [inhibitor, single point] | –
c1coc(CNC2C3CC4CC(C3)CC2C4)c1 (stereo not drawn) | inconclusive [inhibitor, full curve, poor fit] | –
COc1ccc(NC(=O)c2cccc(F)c2)cc1Cl | inconclusive [inhibitor, full curve, poor fit] | –
OC(Cn1cncn1)(c1ccccc1)c1ccccc1 | inconclusive [inhibitor, partial curve, poor fit] | –
COc1cc(C(=O)NC2CCN(CC(=O)Nc3cccc(C)c3C)CC2)cc(OC)c1OC | inconclusive [inhibitor, partial curve, poor fit] | –
C=CCNc1nc(NCC)nc(N2CCOCC2)n1 | inconclusive [inhibitor, full curve, poor fit] | –
Cc1cc(C)cc(NC(=O)OCCN2CCN(Cc3ccccc3)CCC2=O)c1 | inconclusive [inhibitor, partial curve, poor fit] | –
CCCc1[nH]n(-c2ccc([N+](=O)[O-])cc2)c(=O)c1C=NCCCn1ccnc1 | – | inactive: -3.78%
COc1ccc(CN2CCC(C(=O)c3cccc(Cl)c3)CC2)cc1 | inconclusive [inhibitor, full curve] | –
COc1ccccc1Oc1ccc(S(=O)(=O)N2CCCCC2C)cc1 (stereo not drawn) | inconclusive [inhibitor, full curve] | –
CC(C)CCN1CC(C(=O)NCCC2=CCCCC2)CC1=O (stereo not drawn) | inconclusive [inhibitor, single point] | –
CC(=O)Nc1cccc(N=NN2CCCCC2)c1 | – | inactive: 7.05%
CC(C)Oc1cccc(C(=O)Nc2ccc(NC(=O)c3ccco3)cc2)c1 | inconclusive [inhibitor, partial curve, poor fit] | –
Cc1nc(NC(=O)CSc2nc3ccccc3s2)sc1C(=O)N(C)C | inconclusive [inhibitor, full curve] | –
N#CCCN1CCN(C(CNS(=O)(=O)c2ccc(Cl)cc2)c2ccccc2)CC1 (stereo not drawn) | – | inactive: -6.2%
